Experimental data: the supplement of paper PMC6135742
Where a name gives a salt, the structure may show the parent alone. Over roughly 2,600 compounds, “MBP+ mature oligodendrocyte number relative to DMSO vehicle control” has its median near -0.34; the highest 2% begin near 13. This is one part of the list.

These compounds were tested on jimpy (Plp1 jimpy) mouse iPSC-derived oligodendrocyte progenitor cells (assay: MBP+ mature oligodendrocyte number relative to DMSO vehicle control (SDs above negative control mean); higher = more surviving jimpy oligodendrocytes (rescue)). Settings: 10 µM; 3 days.
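Also: 10 µM single dose with 3-day oligodendrocyte differentiation.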

SMILES	MBP+ mature oligodendrocyte number
COC(=O)Nc1nc2cc([S+]([O-])c3ccccc3)ccc2[nH]1 (centres undefined) [Oxfendazole]	-1.46
C[C@@H]1C(=O)NC2=Nc3cccc(Cl)c3CN21 [Quazinone]	-0.925
NNC(=O)CSc1nc2scc(-c3ccccc3)c2c(=O)n1-c1ccccc1	-0.637
COc1ccccc1OCC(O)COC(N)=O (centres undefined) [Methocarbamol]	-0.647
CCc1c(Cl)c(O)c(Cl)c(O)c1C(=O)O[C@H]1[C@H](O)[C@H](OC)[C@H](OC/C2=C\C=C\C[C@H](O)/C(C)=C/[C@H](CC)[C@@H](O[C@@H]3OC(C)(C)[C@@H](OC(=O)C(C)C)[C@H](O)[C@@H]3O)/C(C)=C/C(C)=C/C[C@@H]([C@@H](C)O)OC2=O)O[C@@H]1C [Fidaxomicin]	0.744
Nc1ccn([C@@H]2CS[C@H](CO)O2)c(=O)n1 [Lamivudine]	1.06
Cc1cc(N)c2ccccc2[n+]1CCCCCCCCCC[n+]1c(C)cc(N)c2ccccc21 [Dequalinium chloride hydrate]	< -4.47
CCCCN(CC)c1nc(C)nc2c1c(C)cn2-c1c(C)cc(C)cc1C	2.07
N#CC(C#N)=C(N)/C(C#N)=C/c1cc(O)c(O)c(O)c1 [Tyrphostin 51]	-0.247
CCN(CC)CCCCCCCCOC(=O)c1cc(OC)c(OC)c(OC)c1 [TMB-8 hydrochloride]	8.25
C=CC(=O)Nc1cccc(Nc2nc(Nc3ccc(OCCOC)cc3)ncc2F)c1	-6.1
CCC(=O)Nc1cccc(Oc2nc(Nc3ccc(N4CCN(C)CC4)cc3OC)ncc2Cl)c1	< -6.35
Cn1ccc2cc3c(cc21)CCN3C(=O)Nc1cccnc1	0.574
O=C(O)CP(=O)(O)O [Phosphonoacetic acid]	-0.64
O=C(Nc1ccccc1Br)N[C@@H]1CCN(c2ccc(C(F)(F)F)cn2)C1	1.22
CN(C)CC(c1ccc(O)cc1)C1(O)CCCCC1 (centres undefined) [Desvenlafaxine]	-1.45
CN(C)CC(c1ccc(O)cc1)C1(O)CCCCC1 (centres undefined) [Desvenlafaxine Succinate]	-3.23
O=C(NOCC(O)CO)c1cc(Br)c(F)c(F)c1Nc1ccc(I)cc1F (centres undefined)	-3.17
O=C(C[S+]([O-])Cc1ccco1)NC/C=C\COc1cc(CN2CCCCC2)ccn1 (centres undefined) [Lafutidine]	3.22
C#CCC(Cc1cnc2nc(N)nc(N)c2n1)c1ccc(C(=O)N[C@@H](CCC(=O)O)C(=O)O)cc1 (some centres undefined) [Pralatrexate]	3.13

SMILES	MBP+ mature oligodendrocyte number
COc1c(N2CCNC(C)C2)c(F)cc2c(=O)c(C(=O)O)cn(C3CC3)c12 (centres undefined) [Gatifloxacin]	1.33
O=C(c1ccccc1)c1ccc2n1CCC2C(=O)O (centres undefined) [Ketorolac tris salt]	0.108
O=C(c1ccccc1)c1ccc2n1CCC2C(=O)O (centres undefined) [Ketorolac]	-0.737
CCN(CC)CCCC(C)Nc1nc(C)cc(Nc2ccc3nc(C)cc(N)c3c2)n1 (centres undefined)	2.49
CN(C)C/C=C/C(=O)Nc1cc2c(Nc3ccc(F)c(Cl)c3)ncnc2cc1O[C@H]1CCOC1 [Afatinib (BIBW2992)]	< -6.7
CN1Cc2c(N)cccc2C(c2ccccc2)C1 (centres undefined) [Nomifensine maleate]	-1.23
O=C(Nc1ccccc1)Nc1ccc(-c2ccc(C(=O)[C@@H]3CCC[C@H]3C(=O)O)cc2)cc1	7.17
OC[C@@H](O)[C@@H](O)[C@@H](O)CO [Ribitol]	0.819
O=C1NC(=O)C(=Cc2ccc(-c3ccc(F)cc3)o2)S1 (stereo in doubt)	0.66
O=C1NC(=O)C(c2ccccc2)(c2ccccc2)N1 [5,5-Diphenylhydantoin]	0.398
O=C1NC(=O)C(c2ccccc2)(c2ccccc2)N1 [Phenytoin]	0.339
CC(C)(O)c1ccccc1CC[C@@H](SCC1(CC(=O)O)CC1)c1cccc(/C=C/c2ccc3ccc(Cl)cc3n2)c1 [Montelukast Sodium]	1.93
NS(=O)(=O)c1ccc(-n2nc(C(F)(F)F)cc2-c2ccc(Cl)cc2)cc1	0.931
COc1cccc(C(=O)NCCN2CCN(c3ccc(Cl)cc3)CC2)c1	-1.45
CC1(C)Cc2c(-c3ccccc3)c(-c3ccc(Cl)cc3)c(CC(=O)O)n2C1 [Licofelone]	-1.79
CC(C)(C)c1cc(NC(=O)Nc2ccc(-c3cn4c(n3)sc3cc(OCCN5CCOCC5)ccc34)cc2)no1 [Quizartinib (AC220)]	4.57
O=C(/C=C/c1cccc(S(=O)(=O)Nc2ccccc2)c1)NO [Belinostat (PXD101)]	-6.52
Nc1cc2c(ncn2CCOCP(=O)(O)O)c(=O)[nH]1 [PMEG hydrate]	-1.5
Nc1nc2c(cnn2CCc2ccccc2)c2nc(-c3ccco3)nn12	-1.39
